“Also recorded” adds a separate entry of the source. For part of its entries the source gives two or more results. This is not the full list of results. The source may hold further records.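 Rule for the calls: active = tumour findings in long-term animal cancer tests in more than one sex, species or organ; inactive = no tumour finding and more than one negative test.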 Values given together are repeated measurements (runs, samples, wells, individuals or studies). A tag in brackets gives the origin of a value. The letters are not those of the source and start again with each entry. Marks such as (2×) stand for listed records that agree.
Assay: DSSTox (CPDBAS) Carcinogenic Potency Database Summary MultiCellCall Results
Conditions: animal carcinogenicity bioassays, multi-cell call summary
From the text: The Carcinogenic Potency Database (CPDB) is a unique and widely used international resource of the results of over 6500 chronic, long-term animal cancer tests on over 1500 chemical substances. The CPDB provides easy access to the bioassay literature, with qualitative and quantitative analyses of both positive and negative experiments that have been published over the past 50 years in the general literature and by the National Cancer Institute/National Toxicology Program. The CPDB standardizes the diverse literature of cancer bioassays that vary widely in protocol, histopathological examination and nomenclature, and in the published author's choices of what information to provide in their papers. Results are reported in the CPDB for tests in rats, mice, hamsters, dogs, and nonhuman primates, and are based on the most positive result among all experiments for each sex-species. The DSSTox CPDBAS (all species) file incorporates data from the CPDB Summary Tables for the full list of over 1500 chemical substances tested in at least one species. A summary MultiCellCall, based on experimental bioassay results of one or more species, is provided in the DSSTox CPDBAS file (see Source URL) for more than 1150 chemical substances.
Associated TD50 values and tumor site details for the relevant species/sex experiment supporting the overall CPDBAS MultiSiteCall are provided in the full DSSTox CPDBAS file (see Comment) and the corresponding CPDBAS Species Bioassay in PubChem. ActivityScore is computed as follows: multispecies=50, multisex=30, multisite=20, with combination scores computed as sums of these values, e.g. multispecies+multisite=70.

| SMILES | outcome |
| --- | --- |
| Oc1c(Cl)c(Cl)c(Cl)c(Cl)c1Cl | active; multisite active [sample A]; also recorded: active; multisite active; multisex active [sample B]; also recorded: active; multisite active; multisex active; multispecies active [sample C] |
| ClC=C(Cl)Cl | active; multisite active; multisex active; multispecies active [sample A]; also recorded: active; multisex active [sample B] |
| CN(C)C(=S)SSC(=S)N(C)C | inactive; multisex inactive; multispecies inactive [sample A]; also recorded: inactive; multisex inactive [sample B] |
| Brc1c(Br)c(Br)c(Oc2c(Br)c(Br)c(Br)c(Br)c2Br)c(Br)c1Br | active; multisex active [sample A] and inactive; multisex inactive [sample B] |
| ClC1C(Cl)C(Cl)C(Cl)C(Cl)C1Cl (stereo unspecified) | active; multispecies active; also recorded: active; multisex active (2×); also recorded: active; multisite active; multisex active [separate samples] |
| Cl/C=C/CCl | active; multisite active; multisex active; multispecies active [sample A]; also recorded: active; multisite active; multispecies active [sample B] |
| Cc1cccc(C)c1 | active; multisite active; multisex active [sample A]; also recorded: inactive; multisex inactive; multispecies inactive [sample B] |
| C=CC(=C)Cl | active; multisite active; multisex active; multispecies active [sample A]; also recorded: inactive; multisex inactive; multispecies inactive [sample B] |
| CC(=O)OC1CC(C)OC(C)O1 (stereo unspecified) | active; multisite active [sample A]; also recorded: inactive; multisex inactive; multispecies inactive [sample B] |
| CCCCOCCOCCOCc1cc2c(cc1CCC)OCO2 | active; multisex active; multispecies active [sample A]; also recorded: inactive; multisex inactive [sample B] |
| C=C(C)CCl | active; multisite active; multisex active [sample A]; also recorded: active; multisex active; multispecies active [sample B] |

From PubChem BioAssay AID1205 (EPA DSSTox, 2008)
